# In the supplement of paper PMC8728848:
# The other results are listed elsewhere or left out.
# B1: SSL (Salmo salar) (protein)
# chain: TGAKGAEEGVVPAETRNQCPTGWFQFGSRCFMFVETARSWPLAERHCVSLGANLASVHSSADDQFLQAIAGCKTGAFSTTWIGGFDAVQDRLWFWSDGSEFDYQNWAKGEPNNSGGREPCIVINWGDEYRWNDIKCGNSFPSVCSKRICEIQKN
# Assays:
# Experiment in all cases: glycan array binding signal (z-score within array); higher = stronger binding
# Conditions in all cases: glycan notation: IUPAC condensed, linker removed
# [1] = molecular target: Fuc(a1-2)[Gal(a1-3)]Gal
# Procedure, shortened: (§1)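 From the Consortium for Functional Glycomics database, 3228 arrays were curated, keeping only those whose protein sequence was available. Binding is given as a within-array Z-score averaged across arrays sharing a protein sequence and across linkers. Negative Z-scores can be read as non-binding.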
# [2] = molecular target: Fuc(a1-2)[Gal(a1-3)]Gal(b1-3)GlcNAc
# Procedure, shortened: as §1
# [3] = molecular target: Fuc(a1-2)[Gal(a1-3)]Gal(b1-3)GlcNAc(b1-2)Man(a1-3)[Fuc(a1-2)[Gal(a1-3)]Gal(b1-3)GlcNAc(b1-2)Man(a1-6)]Man(b1-4)GlcNAc(b1-4)GlcNAc
# Procedure, shortened: as §1
# [4] = molecular target: Fuc(a1-2)[Gal(a1-3)]Gal(b1-4)Glc
# Procedure, shortened: as §1
# [5] = molecular target: Fuc(a1-2)[Gal(a1-3)]Gal(b1-4)GlcNAc
# Procedure, shortened: as §1
# [6] = molecular target: Fuc(a1-2)[Gal(a1-3)]Gal(b1-4)GlcNAc(b1-2)Man(a1-3)[Fuc(a1-2)[Gal(a1-3)]Gal(b1-4)GlcNAc(b1-2)Man(a1-6)]Man(b1-4)GlcNAc(b1-4)GlcNAc
# Procedure, shortened: as §1
# [7] = molecular target: Fuc(a1-2)[Gal(a1-3)]Gal(b1-4)[Fuc(a1-3)]GlcNAc
# Procedure, shortened: as §1
# [8] = molecular target: Fuc(a1-2)[Gal(a1-4)]Gal(b1-4)GlcNAc
# Procedure, shortened: as §1
# [9] = molecular target: Fuc(a1-2)[GalNAc(a1-3)]Gal
# Procedure, shortened: as §1
# [10] = molecular target: Fuc(a1-2)[GalNAc(a1-3)]Gal(b1-3)GalNAc(a1-3)[Fuc(a1-2)]Gal(b1-4)GlcNAc
# Procedure, shortened: as §1
# [11] = molecular target: Fuc(a1-2)[GalNAc(a1-3)]Gal(b1-3)GlcNAc
# Procedure, shortened: as §1
# [12] = molecular target: Fuc(a1-2)[GalNAc(a1-3)]Gal(b1-3)GlcNAc(b1-2)Man(a1-3)[Fuc(a1-2)[GalNAc(a1-3)]Gal(b1-3)GlcNAc(b1-2)Man(a1-6)]Man(b1-4)GlcNAc(b1-4)GlcNAc
# Procedure, shortened: as §1
# [13] = molecular target: Fuc(a1-2)[GalNAc(a1-3)]Gal(b1-4)Glc
# Procedure, shortened: as §1
# [14] = molecular target: Fuc(a1-2)[GalNAc(a1-3)]Gal(b1-4)GlcNAc
# Procedure, shortened: as §1
# [15] = molecular target: Fuc(a1-2)[GalNAc(a1-3)]Gal(b1-4)GlcNAc(b1-2)Man(a1-3)[Fuc(a1-2)[GalNAc(a1-3)]Gal(b1-4)GlcNAc(b1-2)Man(a1-6)]Man(b1-4)GlcNAc(b1-4)GlcNAc
# Procedure, shortened: as §1
# [16] = molecular target: Fuc(a1-2)[GalNAc(a1-3)]Gal(b1-4)GlcNAc(b1-3)Gal(b1-4)GlcNAc
# Procedure, shortened: as §1
# [17] = molecular target: Fuc(a1-2)[GalNAc(a1-3)]Gal(b1-4)GlcNAc(b1-3)Gal(b1-4)GlcNAc(b1-3)Gal(b1-4)GlcNAc
# Procedure, shortened: as §1
# [18] = molecular target: Fuc(a1-2)[GalNAc(a1-3)]Gal(b1-4)[Fuc(a1-3)]GlcNAc
# Procedure, shortened: as §1
# [19] = molecular target: Fuc(a1-2)[GalNAc(a1-4)]Gal(b1-4)GlcNAc
# Procedure, shortened: as §1
# [20] = molecular target: Fuc(a1-2)[GalNAc(b1-3)]Gal
# Procedure, shortened: as §1
# [21] = molecular target: Fuc(a1-3)GlcNAc
# Procedure, shortened: as §1
# [22] = molecular target: Fuc(a1-3)[Gal(b1-4)]Glc6S
# Procedure, shortened: as §1
# [23] = molecular target: Fuc(a1-3)[Gal(b1-4)]GlcNAc
# Procedure, shortened: as §1
# [24] = molecular target: Fuc(a1-3)[Gal(b1-4)]GlcNAc(b1-2)Man(a1-3)[Fuc(a1-3)[Gal(b1-4)]GlcNAc(b1-2)Man(a1-6)]Man(b1-4)GlcNAc(b1-4)GlcNAc
# Procedure, shortened: as §1
# [25] = molecular target: Fuc(a1-3)[Gal(b1-4)]GlcNAc(b1-3)Gal(b1-3)[Fuc(a1-4)]GlcNAc
# Procedure, shortened: as §1
# [26] = molecular target: Fuc(a1-3)[Gal(b1-4)]GlcNAc(b1-3)GalNAc
# Procedure, shortened: as §1
# [27] = molecular target: Fuc(a1-3)[Gal(b1-4)]GlcNAc(b1-4)Gal(b1-4)[Fuc(a1-3)]GlcNAc
# Procedure, shortened: as §1
# [28] = molecular target: Fuc(a1-3)[Gal(b1-4)]GlcNAc(b1-4)Gal(b1-4)[Fuc(a1-3)]GlcNAc(b1-4)Gal(b1-4)[Fuc(a1-3)]GlcNAc
# Procedure, shortened: as §1
# [29] = molecular target: Fuc(a1-3)[Gal(b1-4)]GlcNAc(b1-6)[Gal(b1-3)GlcNAc(b1-3)]Gal(b1-4)Glc
# Procedure, shortened: as §1
# [30] = molecular target: Fuc(a1-3)[Gal(b1-4)]GlcNAc6S
# Procedure, shortened: as §1
# [31] = molecular target: Fuc(a1-3)[Gal3S(b1-4)]GlcNAc
# Procedure, shortened: as §1
# [32] = molecular target: Fuc(a1-3)[Gal3S(b1-4)]GlcNAc6S
# Procedure, shortened: as §1
# [33] = molecular target: Fuc(a1-3)[GalNAc(b1-4)]GlcNAc
# Procedure, shortened: as §1
# [34] = molecular target: Fuc(a1-4)GlcNAc
# Procedure, shortened: as §1
# [35] = molecular target: Fuc(b1-3)GlcNAc
# Procedure, shortened: as §1
# [36] = molecular target: Gal(a1-2)Gal
# Procedure, shortened: as §1
# [37] = molecular target: Gal(a1-3)Gal
# Procedure, shortened: as §1
# [38] = molecular target: Gal(a1-3)Gal(b1-3)GlcNAc
# Procedure, shortened: as §1
# [39] = molecular target: Gal(a1-3)Gal(b1-3)GlcNAc(b1-2)Man(a1-3)[Gal(a1-3)Gal(b1-3)GlcNAc(b1-2)Man(a1-6)]Man(b1-4)GlcNAc(b1-4)GlcNAc
# Procedure, shortened: as §1
# [40] = molecular target: Gal(a1-3)Gal(b1-3)[Fuc(a1-4)]GlcNAc(b1-2)Man(a1-3)[Gal(a1-3)Gal(b1-3)[Fuc(a1-4)]GlcNAc(b1-2)Man(a1-6)]Man(b1-4)GlcNAc(b1-4)GlcNAc
# Procedure, shortened: as §1
# [41] = molecular target: Gal(a1-3)Gal(b1-4)Glc
# Procedure, shortened: as §1
# [42] = molecular target: Gal(a1-3)Gal(b1-4)GlcNAc
# Procedure, shortened: as §1
# [43] = molecular target: Gal(a1-3)Gal(b1-4)GlcNAc(b1-3)GalNAc
# Procedure, shortened: as §1
# [44] = molecular target: Gal(a1-3)Gal(b1-4)[Fuc(a1-3)]GlcNAc
# Procedure, shortened: as §1
# [45] = molecular target: Gal(a1-3)Gal(b1-4)[Fuc(a1-3)]GlcNAc(b1-2)Man(a1-3)[Gal(a1-3)Gal(b1-4)[Fuc(a1-3)]GlcNAc(b1-2)Man(a1-6)]Man(b1-4)GlcNAc(b1-4)GlcNAc
# Procedure, shortened: as §1
binder,measurement,setting,value
B1,glycan array binding signal (z-score),[1],-0.152
same,glycan array binding signal (z-score),[2],-0.16
same,glycan array binding signal (z-score),[3],-0.182
same,glycan array binding signal (z-score),[4],-0.135
same,glycan array binding signal (z-score),[5],-0.175
same,glycan array binding signal (z-score),[6],-0.182
same,glycan array binding signal (z-score),[7],-0.154
same,glycan array binding signal (z-score),[8],-0.129
same,glycan array binding signal (z-score),[9],-0.165
same,glycan array binding signal (z-score),[10],-0.164
same,glycan array binding signal (z-score),[11],-0.16
same,glycan array binding signal (z-score),[12],-0.184
same,glycan array binding signal (z-score),[13],-0.144
same,glycan array binding signal (z-score),[14],-0.171
same,glycan array binding signal (z-score),[15],-0.178
same,glycan array binding signal (z-score),[16],-0.182
same,glycan array binding signal (z-score),[17],-0.178
same,glycan array binding signal (z-score),[18],-0.141
same,glycan array binding signal (z-score),[19],-0.171
same,glycan array binding signal (z-score),[20],-0.158
same,glycan array binding signal (z-score),[21],-0.147
same,glycan array binding signal (z-score),[22],-0.131
same,glycan array binding signal (z-score),[23],-0.14
same,glycan array binding signal (z-score),[24],-0.138
same,glycan array binding signal (z-score),[25],-0.176
same,glycan array binding signal (z-score),[26],-0.124
same,glycan array binding signal (z-score),[27],-0.111
same,glycan array binding signal (z-score),[28],-0.175
same,glycan array binding signal (z-score),[29],-0.183
same,glycan array binding signal (z-score),[30],-0.165
same,glycan array binding signal (z-score),[31],-0.17
same,glycan array binding signal (z-score),[32],-0.149
same,glycan array binding signal (z-score),[33],-0.151
same,glycan array binding signal (z-score),[34],-0.181
same,glycan array binding signal (z-score),[35],-0.167
same,glycan array binding signal (z-score),[36],-0.143
same,glycan array binding signal (z-score),[37],-0.153
same,glycan array binding signal (z-score),[38],-0.145
same,glycan array binding signal (z-score),[39],-0.144
same,glycan array binding signal (z-score),[40],-0.169
same,glycan array binding signal (z-score),[41],-0.132
same,glycan array binding signal (z-score),[42],-0.16
same,glycan array binding signal (z-score),[43],-0.151
same,glycan array binding signal (z-score),[44],-0.164
same,glycan array binding signal (z-score),[45],-0.154
